Common to all, as to type: biochemical
Assay [1] has as its system dabigatran anticoagulant activity. The experiment in a line: Neutralization of dabigatran anticoagulant activity, thrombin clotting time in human plasma. The settings on record: 30 nM dabigatran, 1.5-2 U/mL thrombin. As for the experimental part: Two series of experiments were performed to show the effect of the antibodies against dabigatran anticoagulant activity in vitro. The four polyclonal antibodies were received in the laboratory and further tested in human plasma. This was tested in the functional assay, the thrombin clotting time.
The thrombin clotting time is performed as follows. […] It is used within 2 hrs of being prepared.

Assay [2] shares this test system. Briefly: Neutralization of dabigatran anticoagulant activity, thrombin clotting time in human whole blood. The settings on record: 30 nM dabigatran, 1.5-2 U/mL thrombin. As for the experimental part: FIG. 7: A mouse monoclonal antibody (Clone 22) reverses the anticoagulant effect of dabigatran in human plasma and in human whole blood. Increasing concentrations of mouse antibody were added to human plasma or whole blood that had been preincubated with 30 nM dabigatran. The assay was initiated by the addition of 1.5-2 U/mL of thrombin and clotting time was measured. 100% dabigatran activity was defined as the difference in clotting time in the presence and absence of compound.
The mouse monoclonal antibody clone 22 was tested for its ability to neutralize dabigatran anticoagulant activity in human plasma in the thrombin clotting time assay outlined in Example II. […] (FIG. 8).

The test system of assay [3] is dabigatran acylglucuronide. Briefly: Neutralization of dabigatran acylglucuronide, thrombin clotting time in human plasma. The settings on record: 7 nM dabigatran acylglucuronide, 0.4 U/mL thrombin. As for the experimental part:
FIG. 9: A mouse monoclonal antibody (Clone 22) reverses the anticoagulant effect of dabigatran acylglucuronide in human plasma. Increasing concentrations of mouse antibody were added to human plasma that had been preincubated with 7 nM of dabigatran acylglucuronide or dabigatran. The assay was initiated by the addition of 0.4 U/mL of thrombin and clotting time was measured. 100% inhibition was defined as the complete block of the compound mediated increase in clotting time.
The major metabolic pathway of dabigatran in humans is through the glucuronidation of the carboxylate moiety. […] To test whether the mouse monoclonal antibody clone 22 could neutralize these metabolites, dabigatran acylglucuronides were purified from the urine of rhesus monkeys treated with dabigatran and evalulated in the thrombin clotting time assay. […] Thus the antibody is effective in blocking the anticoagulant activity of dabigatran metabolites found in humans.

The text below walks through data of patent publication US8486398B2, “Anticoagulant antidotes comprising antibodies that bind dabigatran and/or related compounds” (Boehringer Ingelheim International GmbH, priority 2010, dated 2013).

B1: Clone 22: mouse monoclonal anti-dabigatran antibody, DBG 22 VH SEQ ID NO: 20, DBG 22 VK SEQ ID NO: 21 (antibody, listed as Mus musculus, V domains shown)
VH: QVQLEQSGPGLVAPSQRLSITCTVSGFSLTSYIVDWVRQSPGKGLEWLGVIWAGGSTNYNSALRSRLSITKSNSKSQVFLQMNSLQTDDTAIYYCASAAYYSYYNYDGFAYWGQGTLVTVSA
VL: DVVMTQTPLTLSVTIGQPASISCKSSQSLLYTNGKTYLYWLLQRPGQSPKRLIYLVSKLDSGVPDRFSGSGSGTDFTLKISRVEAEDVGIYYCLQSTHFPHTFGGGTKLEIK
Take B1: the “reversal of dabigatran mediated prolongation of clotting time” value is listed as “dose dependently inhibited the dabigatran mediated prolongation of clotting time” in assay [1], “completely reversed the dabigatran-mediated prolongation of thrombin dependent clotting” in assay [1] (listed as clone 22) and “effectively inhibited dabigatran function” in assay [2]. The “reversal of dabigatran acylglucuronide induced prolongation in clotting time” value in assay [3] is “dose dependently inhibited the dabigatran acylglucuronide induced prolongation in clotting time”.
